This is an account of results in PMC10726135.

This is one part of the list. At the low end of the ranking the order means little. The protein was read in a cell extract, so binding may be indirect.

For the assay, the target named is T1, HNF4alpha2 (COS-7 nuclear extract) (UniProt P41235).
T1 sequence: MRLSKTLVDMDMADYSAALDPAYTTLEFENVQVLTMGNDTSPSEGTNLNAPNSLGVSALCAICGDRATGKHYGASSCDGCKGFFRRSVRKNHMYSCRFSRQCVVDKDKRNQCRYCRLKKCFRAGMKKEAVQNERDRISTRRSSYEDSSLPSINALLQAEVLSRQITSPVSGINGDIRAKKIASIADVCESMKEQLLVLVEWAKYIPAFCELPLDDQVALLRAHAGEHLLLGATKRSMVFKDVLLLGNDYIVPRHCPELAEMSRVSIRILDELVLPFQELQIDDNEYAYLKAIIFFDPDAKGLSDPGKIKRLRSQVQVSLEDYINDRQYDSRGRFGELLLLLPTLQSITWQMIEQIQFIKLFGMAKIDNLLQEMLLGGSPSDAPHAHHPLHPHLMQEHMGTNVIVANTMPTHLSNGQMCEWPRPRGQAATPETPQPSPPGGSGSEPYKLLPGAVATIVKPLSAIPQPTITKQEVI
Put plainly: protein-binding microarray. The conditions noted are these: COS-7 nuclear extract on double-stranded Agilent 4x180k PBM; binding buffer, salt, pH and temperature not given; high values mean tight binding; double strand, one strand shown; sequences stand for … in …GCCTAGGGAGATTAGAGTATCGGTCGA
CTATCACCTCTCCCACCTGAATTATTGTAT: the binding signal (log2 normalized intensity) is 2.07.
As for CAGGGTCAGAAGGGAGGTAGTCGCCCTCCG, the figure is -0.764; as for AAATAAAGCAGCAAACCAGATAAGACTATC, -1.12.
In the case of GGGAGCAGGCAGATTTGACCTACGGACCAT it was 4.17; in that of GGAGACCTGAAACTAGACCAAGAAGACTTT, -0.974; in that of AAGCAAGACTGCAGGGTCATAGCTTTATCT, -1.01.
As for CAATAAGCCAGTGAACCTTTGTCCCGTTAT, the figure is 3.39; as for GTGGCCATGATGCCATCTGGTGAAGCTTAT, -0.477.
Regarding AGTCCGTTACAGACAGGCAGCCCCTGGAAA, the binding signal (log2 normalized intensity) was -0.0984.
As to CTCTGTATTGTAAAAGAAAGTGAGCAGGCA, the binding signal (log2 normalized intensity) came to 0.314.
In the case of CCAAAATGGCGACAAGAGTGACCTCTGGTC it was 4.79; in that of TGTGTTGACCGATAACCCTCCTGAACATAA, 0.402.
In the case of AGGCGGAAGTAAGGCGGAAGTACTGCCCTT it was 1.4; in that of CATCACATTCCCCAGGCAATCTTCCAGTCC, 0.836; in that of TTCACACTCCCACCAGCATGGTGATGCTAG, -1.13.
As for AACTACAAACGGATATTTGATCAAAGGTCA, the figure is 5.55.
For ACGCAGGCCTGCAAGCTCCTGGTTGGGGCC, the binding signal (log2 normalized intensity) was -1.16.
In the case of TGTTCATTCATTCACCTTTCGCCCTTTGTC it was 3.65.
In the case of CTCACAGAAAGAAGAGACAGCTGGGCCCTG it was -1.13; in that of GCCAGATAGCCACTGGGGTCATGGAGCTGG, 0.893; in that of CCATCTTGCCCACCAATGATCAAAGGTTAG, 4.03.
As for TGGGGGGTAGCCACTGACAGGAGGTATGCC, the figure is -1.11; as for AGGGTGGAAGTCCAACCTTTGCTCACTTGG, 3.61.
Regarding GACAAATTCCTGGGAACTGCGGACATAGCT, the binding signal (log2 normalized intensity) was -1.14.
As for ACCTAGAGCTTCAGACGCCCTATGGCGTCC, the figure is -1.2; as for TCCTTTGGATCATGTGTCTGAGCAAGTTTC, 2.08; as for CATAGGAGAAACACATAAACCCTGACCCTC, 2.03.
As for AATTAGGGAGTAGGGACAGCTAGTCTAGAC, the figure is -1.1.
As for TCAAGGAAGAGAACTCCCTATCCCCAGATT, the figure is 2.35; as for CAGGAGCAGAAGCAGGCCTCGGGCCTGCGA, -1.05.
For GCAGCCGCCGGAGAATTAAACTGCCGCGCC, the binding signal (log2 normalized intensity) was -1.14.
As for ACTTAAAAAAATCTAGTTTAGGATTTTAGC, the figure is -1.2; as for TAAGGGAGATGAAAGGGGCCTCAGAGAAAG, -1.12.
In the case of ATTCTCTAGAATCTAGAAAATGCAAGGAAA it was -1.11.
In the case of TCTTTGAATGGACTCTGAGACCTGTGATGG it was 2.84.
Turning to ATTTACAAACAAATGCAAAACTGGCAAAAC, the binding signal (log2 normalized intensity) was -1.
As for CCAGGTCCACAGTGCACATTCCAGAGAAAT, the figure is -1.14; as for TACTTTTCAGGAACTGTTCTTTGACTCAGT, 1.51.
In the case of CAGCAACCGCCTACCTTTGGACTTCTCATT it was 3.29; in that of TTGGACTCTGCCACTGGTTTGCACACACCA, 1.09.
As for CTGTGGGGAGGTTATCTCGGGGATGGCATG, the figure is 0.755.
As for TGACCCCTCCCCTCCCCCTTGGTGTTTAAA, the binding signal (log2 normalized intensity) was determined as 5.37.
In the case of TACTGGTTGAATGGACGGACAGGTAACGTA it was 0.856; in that of ATCTTTTTAGCAACTGGTATGTTAGATTAG, 1.18; in that of TGTGTGTAACATTTGACTTCCCCAAAACTT, 2.22.
For GACAAATCTCACTGATAGTCTCCTATCAAG, the binding signal (log2 normalized intensity) was -1.12.
In the case of GTCCTGCACATGAATGATCAAAGGTTGGTT it was 3.66.
As for TGTGCTAGATACTGGAGATATGTTGCTGGA, the figure is 0.886; as for GTGACTTGAAAGGGACTTAGAATCGAATTG, 0.297.
As for TAACATTAATGGAAATGCCTAGGATACCTA, the figure is -1.02; as for CAGCTGTTATGAGTCTGTTGTCTAACATTT, -0.782; as for AGGGCAAAGGTCAGAGGCTGATTTCTCAGG, 4.84.
As to AGAAGACCAAACAACCAGGGAGATGTGAGC, the binding signal (log2 normalized intensity) is -1.15.
Turning to AACTTGGTTACAGGACCAGGTGTAGATAAA, the binding signal (log2 normalized intensity) is 0.142.
In the case of CAGTGCAAACACACAATATTGACATTCCAG it was -0.784; in that of CGGCGGAGCCTCCGGCCTGAGGCAGGATCA, -1.13.
In the case of AAGACTAACCTTTGACCATCCACGGGTCCA it was 4.65.
As for GCAGTGAAATTCTGGCCAACCAGCACTTCT, the figure is -0.995.
Take GGCCACAGACCCCCGGTGGAGCAGCTTTCT: the binding signal (log2 normalized intensity) was 1.36.
In the case of CAGAGCAAAGGGCTTATTTTAGGAGCCTCC, the binding signal (log2 normalized intensity) was -1.1.
In the case of CTGAATAAAACAAACTCATTTTGATCTTTG it was 2.24.
As for CAGAGAAGCCGTGGTGCTGTCCAAGGTGCT, the figure is -1.12; as for TCAGCCATCTCCCCAGGGAGGCCTGGGCCC, -1.16; as for CCTGCTGCTGGCTGGCGGCCTTTGGGTCCC, 1.13.
In the case of GTAGGCGTATGCTGTACAGATCTCTACGAC it was -1.07; in that of AGAACTGTTAACTTTGTACTCAATTTGGAT, 1.68; in that of AAGGACAAAGGTCAACAAACGCCCCTTGGA, 5.06.
On to AACTGTCACAAGAAAGGCAGAAAACTCAGA, for which the binding signal (log2 normalized intensity) is -0.803.
In the case of AATCTCTCAAGTTGCCCGCTTGGCCCTCTT it was 1.51; in that of TAAACCCGATCCTTACTATTAGGTCTTTGA, 1.78; in that of AGCACATCACACAGGCATATTTGGTTAGCT, -0.688.
In the case of CAGTATTAATGTCAAACTGATCAGAAGTGG it was 1.02.
